# In the supplement of paper PMC9446081:
# Out of some 39,000 compounds screened, about 220 (0.56%) showed activity. The list shows a part of the results.
# Tested on: Escherichia coli K-12 BW25113
# Experiment: relative growth (OD600 normalised to plate interquartile mean) (fraction); higher = less growth inhibition, active = 0.2 or less
# Conditions: 50 µM; LB; incubation time: overnight (16-24 h)
# 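Note: static incubation at 37 °C against the wild-type strain, values averaged over two biological replicates.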
row,SMILES,relative growth
1,C[C@H]1CCCCO[C@H](CN(C)C(=O)Nc2ccccc2)[C@@H](C)CN([C@@H](C)CO)C(=O)c2cc(NC(=O)Nc3ccccc3)ccc2O1,inactive: 1.04
2,Cc1ccc(S(=O)(=O)Nc2ccc3c(c2)C(=O)N([C@H](C)CO)C[C@H](C)[C@@H](CN(C)S(=O)(=O)c2cn(C)cn2)O3)cc1,inactive: 0.993
3,CN1CCN(C(=O)C[C@H]2CC[C@@H](NC(=O)c3ccc4c(c3)OCO4)[C@@H](CO)O2)CC1,inactive: 0.972
4,C[C@H]1CN([C@@H](C)CO)C(=O)c2cccc(NC(=O)c3ccc(-c4nccs4)cc3)c2O[C@H]1CN(C)Cc1ccc(C(=O)Nc2ccccc2N)cc1,inactive: 1.01
5,C[C@@H]1CN([C@H](C)CO)C(=O)c2cccc(NC(=O)CCCCCC(=O)Nc3ccccc3N)c2O[C@H]1CN(C)C(=O)Nc1ccccc1,inactive: 0.976
6,C[C@@H]1CN([C@@H](C)CO)C(=O)CCCn2nncc2CO[C@@H]1CN(C)S(=O)(=O)c1ccccc1C#N,inactive: 0.963
7,CCS(=O)(=O)Nc1ccc2c(c1)C(=O)N(C)[C@@H]1CC[C@H](CC(=O)N3CCN(C)CC3)O[C@H]1CO2,inactive: 0.981
8,CCC(=O)Nc1ccc2c(c1)OC[C@@H](C)N(S(=O)(=O)c1cn(C)cn1)C[C@@H](C)[C@H](OC)CN(C)C2=O,inactive: 0.993
9,C[C@@H]1CCCCO[C@H](CN(C)S(=O)(=O)c2cccs2)[C@@H](C)CN([C@@H](C)CO)C(=O)c2cc(NC(=O)c3ccccc3)ccc2O1,inactive: 1.06
10,C[C@@H]1CN([C@H](C)CO)C(=O)CCCn2cc(nn2)CO[C@H]1CN(C)C(=O)Nc1ccc(N2CCN(C)CC2)cc1,inactive: 0.965
11,COCC#Cc1ccc2c(c1)O[C@H](CN(C)S(=O)(=O)c1cccc(OC)c1)[C@H](C)CN([C@H](C)CO)S2(=O)=O,inactive: 1.02
12,O=C(C[C@@H]1C=C[C@H](NC(=O)Cc2ccccn2)[C@@H](CO)O1)NCCc1ccncc1,inactive: 0.989
13,C[C@@H]1CN([C@@H](C)CO)C(=O)Cc2cc(NC(=O)NC3CCCCC3)ccc2O[C@@H]1CN(C)S(=O)(=O)c1cn(C)cn1,inactive: 0.981
14,C[C@H]1CC/C=C\[C@H]2O[C@@]34C=CCN(c5ccc6ccccc6c5)C(=O)[C@H]3N(CCO)C(=O)[C@@H]4[C@@H]2C(=O)O1,inactive: 0.983
15,COc1ccc(CN(C)C[C@H]2Oc3ccc(NC(=O)Nc4ccc(C(F)(F)F)cc4)cc3CC(=O)N([C@@H](C)CO)C[C@@H]2C)cc1,inactive: 0.99
16,COc1ccc(CN(C)C[C@H]2OCCCC[C@H](C)Oc3ccc(NC(=O)c4ccncc4)cc3C(=O)N([C@H](C)CO)C[C@H]2C)cc1,inactive: 0.998
17,C[C@H](CO)N1C[C@H](C)[C@@H](CN(C)C(=O)NC2CCCCC2)Oc2ccc(NC(=O)C3CC3)cc2C1=O,inactive: 0.998
18,C[C@H]1CN([C@@H](C)CO)C(=O)Cc2cc(NC(=O)CCN3CCOCC3)ccc2O[C@@H]1CN(C)C(=O)NC1CCCCC1,inactive: 0.992
19,CC(C)(C)S(=O)N1Cc2cc(C(=O)N[C@@H]3CCN(Cc4ccccc4)C3)nc(-c3cccc(C#CCC4CCCC4)c3)c2[C@H]1CCO (some centres not stated),inactive: 1.06

row,SMILES,relative growth
1,c1coc(CNc2nc[n+]3c4c2ncn4CC3)c1,inactive: 0.965
2,Cc1ccc(S(=O)(=O)N(C)C[C@H]2Oc3c(NS(=O)(=O)c4cn(C)cn4)cccc3C(=O)N([C@H](C)CO)C[C@H]2C)cc1,inactive: 0.977
3,C[C@@H]1CN([C@@H](C)CO)C(=O)c2cc(NS(=O)(=O)c3cn(C)cn3)ccc2O[C@@H](C)CCCCO[C@H]1CN(C)S(=O)(=O)c1cccs1,inactive: 1.02
4,C[C@@H]1CN([C@H](C)CO)C(=O)c2cccc(NS(=O)(=O)c3ccc(F)cc3)c2O[C@@H]1CN(C)S(=O)(=O)c1cccs1,inactive: 0.997
5,Cc1ccc(S(=O)(=O)Nc2ccc3c(c2)CC(=O)N([C@@H](C)CO)C[C@@H](C)[C@H](CN(C)S(=O)(=O)c2cn(C)cn2)O3)cc1,inactive: 0.992
6,Cc1ccc(S(=O)(=O)N(C)C[C@H]2Oc3ccc(NC(=O)CCN4CCOCC4)cc3C(=O)N([C@H](C)CO)C[C@@H]2C)cc1,inactive: 0.905
7,O=C1NC[C@@H](c2ccccc2)OC(=O)[C@@H](Cc2ccc(F)cc2)CC/C=C/C[C@@H]1CC(=O)N(CCO)Cc1ccccc1,inactive: 1
8,C[C@@H]1CCCCO[C@H](CN(C)Cc2ccc3c(c2)OCO3)[C@@H](C)CN([C@@H](C)CO)C(=O)c2cc(NC(=O)Nc3ccc(F)cc3)ccc2O1,inactive: 1.01
9,C=CCN(C#N)c1nc(N(C)C)nc(N(C)C)n1,inactive: 1.02
10,C[C@H](CO)N1C[C@H](C)[C@@H](CN(C)C(=O)Nc2cccc3ccccc23)Oc2ccc(NC(=O)Nc3cccc4ccccc34)cc2C1=O,inactive: 1.07
11,Cc1noc(C)c1S(=O)(=O)Nc1ccc2c(c1)C(=O)N([C@@H](C)CO)C[C@@H](C)[C@H](CN(C)Cc1ccc(-c3ccccc3)cc1)O2,inactive: 0.981
12,COc1ccc(S(=O)(=O)Nc2ccc3c(c2)C(=O)N([C@@H](C)CO)C[C@H](C)[C@H](CN(C)S(C)(=O)=O)O3)cc1,inactive: 0.997
13,NCCCN1CCCN(CCCN)CC1,inactive: 0.977
14,Cc1noc(C)c1NC(=O)Nc1ccc2c(c1)CC(=O)N([C@H](C)CO)C[C@@H](C)[C@H](CN(C)S(=O)(=O)c1c(C)noc1C)O2,inactive: 1
15,C[C@@H]1CN([C@@H](C)CO)C(=O)c2cc(NS(=O)(=O)c3cccs3)ccc2O[C@@H](C)CCCCO[C@@H]1CN(C)Cc1ccc(C(F)(F)F)cc1,inactive: 1.05
16,CC(=O)N(C)C[C@@H]1Oc2ncc(C#CC(C)(C)O)cc2C(=O)N([C@H](C)CO)C[C@@H]1C,inactive: 0.986
17,C[C@H](CO)N1C[C@H](C)[C@H](CN(C)C(=O)Nc2cccc(F)c2)Oc2ncc(C#CCN(C)C)cc2C1=O,inactive: 0.993
18,O=C(C[C@@H]1CC[C@H]2[C@@H](COC[C@H](O)CN2C(=O)Nc2cccc(Cl)c2)O1)NCCCN1CCOCC1,inactive: 0.944
